According to the RNAGym collection of RNA variant scans (doi:10.1073/pnas.2313332121):
Variants at the floor of the assay are shown more often than the library holds them.

B1: TPR 5TU (parent)
chain: GGAUCUUCUCGAUCUAACAAAAAAGACAAAUCUGCCACAAAGCUUGAGAGCAUCUUCGGAUGCAGAGGCGGCAGCCUUCGGUGGCGCGAUAGCGCCAACGUUCUCAACUAUGACACGCAAAACGCGUGCUCCGUUGAAUGGAGUUUAUCAUG

Variants of: B1
Test: polymerase ribozyme fitness, log enrichment relative to wild type (log ratio); higher = more active; in vitro selection for triplet polymerase activity
Method in brief: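 Streptavidin-bead capture of gel-excised extended constructs, followed by RT-PCR, closed a single triplicate in vitro selection round. That round began by annealing PCR-built, transcribed mutant libraries of each subunit of a heterodimeric triplet polymerase ribozyme with a biotinylated primer, the partner subunit and triplets, then incubating them frozen at −7 °C. After Illumina sequencing of inputs and outputs, genotypes needed ≥10 input reads and ≥1 read per output. Fitness is the base-2 logarithm of genotype enrichment over wild-type enrichment, using inverse-variance-weighted replicate averages.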

Point of comparison: C85U A113G, “polymerase ribozyme fitness (log ratio)” value -1.86. Against it:
- C87A C99A U139A — lower, ≤ -4.2
- C87G A138G A150C — lower, ≤ -4.2
- G84U C99G C103U — lower, ≤ -4.2
- C85G C114G — lower, -3.8
- C85G C95G G117U G143C — lower, ≤ -4.2
- G84U U144G — higher, -0.698
- C85A C103A A147G — lower, ≤ -4.2
- C85A G86U U101G C129U — lower, ≤ -4.2
- G84U G94U — lower, -2.37
- C85U C116G U145A — lower, -2.57
- C85G A107U G112U G143C — lower, ≤ -4.2
- C87A U144A — lower, ≤ -4.2
- C87A U144G — lower, -3.92
- C87A U144C — lower, ≤ -4.2
- C85U C93U C131A — lower, -2.94
- G84U G141A — higher, -1.4
- C85U A89U C95A U151A — lower, ≤ -4.2
- C85A A91U A113C — lower, ≤ -4.2
- C85A C108U U135A U144C — lower, -4.17
- C87A C96A C131A — lower, ≤ -4.2
- C85A U102G A121G A122C — lower, ≤ -4.2
- C85G C118A A142U — lower, -2.93
- C85U C131U G143U — lower, -2.54
- C85U A150G — within 0.2 log units, -1.76
- G86A U101G — higher, -0.828
- C85G C87G A98U A137G U144C — lower, ≤ -4.2
- C87A G136A — lower, ≤ -4.2
- C87A U102C U127G U139A — lower, ≤ -4.2
- C85A A106G A110U C114A — lower, ≤ -4.2
- C85U A98C G117C — higher, 0.631
- G84U G133A — lower, ≤ -4.2
- C87A C132U — lower, ≤ -4.2
- G86U A115C G143U — lower, ≤ -4.2
- C85G C99G G133U — lower, ≤ -4.2
- G86A U145G U148A — lower, ≤ -4.2
- G86A A110U A138G — lower, ≤ -4.2
- C87A C108G — lower, ≤ -4.2
- C85G C96A U102G A122U — lower, ≤ -4.2
- C85A C103U G141C A150U — lower, ≤ -4.2
- C85U U127C U145A — lower, -3.58
- G84U A138G — lower, ≤ -4.2
- C85A A119U A122U G141A — higher, 0.358
- G86A A89U C105U U134A — lower, -3.77
- C85U A120G G124U G143C — lower, -3.46
- C85A U130A — lower, -2.45
- C85A C96A C123A G133C — lower, ≤ -4.2
- C87A C93G C108U — lower, ≤ -4.2
- C85U U148C — lower, -2.19
- C87G A110C U146G C149A — lower, ≤ -4.2
- G86A A89G C149U — lower, ≤ -4.2
- C87A G94A U104A — lower, ≤ -4.2
- C85U U90C — lower, -3.89
- C87G A106G — lower, -4
- G86A G94A C131G — lower, ≤ -4.2
- C85U A91G G100U A122C — lower, ≤ -4.2
- G86A C114U — lower, -2.15
- C85G A89G C96U G100A — lower, ≤ -4.2
- C85A A115C — higher, -1.64
- G84U G141A A142U — lower, ≤ -4.2
- C85A A142U — higher, -1.59
- G84U C99U G141C — lower, -2.46
- G86C G128U — lower, ≤ -4.2
- G86C C131U — lower, -2.55
- G84U G94C U101G C149A — lower, ≤ -4.2
- C85U C95G A119U — within 0.2 log units, -1.89
- C85G C118A G126A — lower, ≤ -4.2
- C87A G88U U111C U139C C149U — lower, ≤ -4.2
- C85U G100A C129U — lower, ≤ -4.2
- G84U A121C — within 0.2 log units, -1.74
- C87A G88A — lower, ≤ -4.2
- G86C C108U — lower, ≤ -4.2
- G84U C96A C103U A113U — lower, ≤ -4.2
- C85G U134A — lower, -3.86
- C85G A98G U144G — higher, -0.337
- C85G U101G G128U — lower, -4.03
- G86U U90G — lower, ≤ -4.2
- C85G G133C — lower, -2.86
- G86U G124A U148A — lower, -3.78
- C85U A98U U151G — lower, ≤ -4.2
- G86A A122G — higher, -1.11
- G86A A122U — higher, -1.33
- C85U C96A C116G — higher, -0.604
- C87A G141U — lower, -3.64
